The full ranking holds about 18,000 sequences; the median of “TetR repression strength (sort-seq, GFP reporter)” is about 0.23, and the highest 2% start at about 0.68. The list shows a part of the results.

The target of the assay is TetR (class B, Tn10) (UniProt P04483). The experiment in a line: TetR repression strength (sort-seq, GFP reporter) (relative to tetO2 = 1); higher = stronger repression. As to conditions: E. coli. Put shortly: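 Repression strength was calculated by subtracting the read-weighted mean bin from the top bin index plus one and dividing by the unaltered operator's value. The plasmid library was low-copy in E. coli SIG10-MAX, with eight randomized operator positions between a constitutive promoter and sfGFP and constitutive TetR. Cultures grew 5 h at 37 °C in LB containing 50 µg/mL chloramphenicol before 10^6 cells were sorted by FACS into 13 fluorescence bins, each sequenced on Illumina. Three independent transformations were averaged for members having ≥30 reads in all replicates and a CV ≤0.5.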
UniProt P04483, sequence (P04483 whole entry): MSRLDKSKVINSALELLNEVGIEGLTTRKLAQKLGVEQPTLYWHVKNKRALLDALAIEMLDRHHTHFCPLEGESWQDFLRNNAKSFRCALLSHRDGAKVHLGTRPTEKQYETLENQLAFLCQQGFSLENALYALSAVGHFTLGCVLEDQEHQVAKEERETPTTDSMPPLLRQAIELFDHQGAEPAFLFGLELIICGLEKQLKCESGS
TCCCTTAGAGTGATTGAGA gave a TetR repression strength of 0.207. Then TCCCTCGGAGTAAGCGAGA, with 0.0829; and TCCCGGGAAGTCTGCGAGA, with 0.164. Then TCCCCGGCAGTCTGCGAGA, with 0.266; and TCCCCGCGAGTGTGCGAGA, with 0.295. Regarding TCCCCAGTAGTGGCCGAGA, the TetR repression strength worked out at 0.211. Then TCCCACGCAGTTGCTGAGA, with 0.133.

TCCCATTCAGTATACGAGA: the TetR repression strength came to 0.238. Consider TCCCGGTTAGTAGGCGAGA, for which the TetR repression strength was 0.143. Sequence TCCCAAACAGTTGAGGAGA displayed a TetR repression strength of 0.137. On to TCCCCCCCAGTGGACGAGA, for which the TetR repression strength stood at 0.248. Turning to TCCCTGCAAGTCGCCGAGA, the TetR repression strength amounted to 0.00451. Regarding TCCCCAGGAGTGCAGGAGA, the TetR repression strength came out at 0.263. The sequence TCCCAGGGAGTCATTGAGA showed a TetR repression strength of 0.358. In turn, TCCCGTTGAGTGTAGGAGA showed a TetR repression strength of 0.169. In turn, TCCCCAGAAGTGGGGGAGA had a TetR repression strength of 0.266. On to TCCCGACAAGTACAGGAGA, for which the TetR repression strength was found to be 0.207. With TCCCGCGGAGTGAGTGAGA, the TetR repression strength came to 0.391. TCCCTCGCAGTACGGGAGA showed a TetR repression strength of 0.211.

TCCCAGTCAGTTCGGGAGA gave a TetR repression strength of 0.489. Then TCCCTTAGAGTATCGGAGA, with 0.0706; and TCCCGGGCAGTCGTTGAGA, with 0.329; and TCCCCGTTAGTGCCTGAGA, with 0.468. Under TCCCGAAGAGTGAGAGAGA stands 0.311.

For the sequence TCCCAGGCAGTGCGGGAGA, the TetR repression strength amounted to 0.264. TCCCTTGAAGTAAAGGAGA gave a TetR repression strength of 0.368. Regarding TCCCGTAGAGTGTATGAGA, the TetR repression strength was 0.255.

On to TCCCGAAGAGTGCGTGAGA, for which the TetR repression strength was 0.165. Under TCCCCACGAGTCGGAGAGA stands 0.256; under TCCCAGGGAGTTGCAGAGA, 0.397. Take TCCCTGTCAGTAAACGAGA: the TetR repression strength was 0.389. Then TCCCGTAGAGTAGCAGAGA, with 0.2; and TCCCTTGGAGTGTGAGAGA, with 0.117. On to TCCCGTAGAGTGCGTGAGA, for which the TetR repression strength was found to be 0.0764.

As for TCCCTTGCAGTAAGCGAGA, the TetR repression strength came to 0.195. Under TCCCGGAAAGTGAACGAGA stands 0.256; under TCCCAGTAAGTATTGGAGA, 0.201; under TCCCGTTGAGTCCCTGAGA, 0.323. Under TCCCCCGAAGTATGTGAGA stands 0.0891; under TCCCACCGAGTAGGCGAGA, 0.166; under TCCCGTAAAGTTGCTGAGA, 0.299. Sequence TCCCCACCAGTCAATGAGA showed a TetR repression strength of 0.315. Sequence TCCCCGGTAGTGCTAGAGA registered a TetR repression strength of 0.13.

For TCCCCTGCAGTTTAGGAGA, the TetR repression strength stood at 0.242. As for TCCCAATTAGTTGCGGAGA, the TetR repression strength was 0.29. In turn, TCCCAAATAGTCAAGGAGA displayed a TetR repression strength of 0.352. Sequence TCCCCAGCAGTCCGCGAGA gave a TetR repression strength of 0.306.

On to TCCCTGTAAGTACGTGAGA, for which the TetR repression strength was determined as 0.365. TCCCACCGAGTCGGTGAGA came in with a TetR repression strength of 0.104.

The sequence TCCCGGTAAGTATTCGAGA showed a TetR repression strength of 0.175.

Sequence TCCCATGGAGTGGCGGAGA showed a TetR repression strength of 0.144.

In the case of TCCCGGTTAGTCCGGGAGA, the TetR repression strength amounted to 0.389. With TCCCTTAGAGTACGGGAGA, the TetR repression strength is 0.104. Then TCCCATCCAGTCCGCGAGA, with 0.318. In the case of TCCCCCTTAGTGACGGAGA, the TetR repression strength stood at 0.0565.

TCCCGGATAGTACTCGAGA: the TetR repression strength was 0.285. Then TCCCAGCTAGTGGGAGAGA, with 0.101; and TCCCAAACAGTGACCGAGA, with 0.434; and TCCCCGGCAGTTTTCGAGA, with 0.218. With TCCCGCTGAGTGATAGAGA, the TetR repression strength was found to be 0.483.

Regarding TCCCGGTGAGTCTCCGAGA, the TetR repression strength came out at 0.146. Sequence TCCCGGGAAGTGTTAGAGA had a TetR repression strength of 0.42.

Consider TCCCGACTAGTGGTTGAGA, for which the TetR repression strength was 0.266. On to TCCCAATCAGTGGGTGAGA, for which the TetR repression strength was found to be 0.543.

As to TCCCGCGAAGTATGGGAGA, the TetR repression strength is 0.254.

For the sequence TCCCAAGGAGTCGGTGAGA, the TetR repression strength amounted to 0.135. Then TCCCGAGCAGTAGAGGAGA, with 0.121; and TCCCACCCAGTACTCGAGA, with 0.194. Under TCCCGGGTAGTAAAGGAGA stands 0.053; under TCCCCCCTAGTGGACGAGA, 0.178. In turn, TCCCCGTCAGTTCGGGAGA showed a TetR repression strength of 0.229.

On to TCCCAGATAGTCCGAGAGA, for which the TetR repression strength was 0.459. Take TCCCCGTAAGTGCGAGAGA: the TetR repression strength amounted to 0.614.

As to TCCCCCATAGTGTAAGAGA, the TetR repression strength turned out to be 0.441. Regarding TCCCGAGGAGTGAGGGAGA, the TetR repression strength turned out to be 0.246. TCCCAGCGAGTAGCGGAGA returned a TetR repression strength of 0.189. Sequence TCCCGCCAAGTTCTAGAGA returned a TetR repression strength of 0.311. In turn, TCCCGGCTAGTCGTTGAGA registered a TetR repression strength of 0.89. The sequence TCCCCTTGAGTAGGTGAGA registered a TetR repression strength of 0.32. TCCCGTGGAGTTAGCGAGA had a TetR repression strength of 0.322. For TCCCGGTTAGTAGGGGAGA, the TetR repression strength amounted to 0.143. In turn, TCCCTGTCAGTGCAGGAGA yielded a TetR repression strength of 0.202. TCCCATGTAGTTTAGGAGA gave a TetR repression strength of 0.19. As to TCCCAAAAAGTGATAGAGA, the TetR repression strength came to 0.582. On to TCCCTATAAGTCGGGGAGA, for which the TetR repression strength was found to be 0.109. Under TCCCCCAAAGTGTGAGAGA stands 0.166; under TCCCTCGGAGTACGCGAGA, 0.161. Take TCCCGTAAAGTACGGGAGA: the TetR repression strength came out at 0.132. In turn, TCCCGGGAAGTACTGGAGA displayed a TetR repression strength of 0.298.

TCCCCGGAAGTCCTGGAGA showed a TetR repression strength of 0.365. Regarding TCCCGATGAGTTATGGAGA, the TetR repression strength came out at 0.269. Under TCCCTATTAGTCTAAGAGA stands 0. Consider TCCCGGTTAGTTGGGGAGA, for which the TetR repression strength was 0.298. TCCCAATAAGTTATAGAGA returned a TetR repression strength of 0.47.

On to TCCCCCTTAGTCAAAGAGA, for which the TetR repression strength stood at 0.318. TCCCTGACAGTCTGGGAGA registered a TetR repression strength of 0.155.

Turning to TCCCAGCAAGTCATGGAGA, the TetR repression strength came out at 0.401.

In turn, TCCCGGAGAGTTACAGAGA gave a TetR repression strength of 0.245. Turning to TCCCAGTGAGTACGTGAGA, the TetR repression strength was 0.262. For the sequence TCCCGGCAAGTCAAGGAGA, the TetR repression strength amounted to 0.399.

In turn, TCCCTTGCAGTATGTGAGA registered a TetR repression strength of 0.109. TCCCGCGCAGTGGATGAGA gave a TetR repression strength of 0.352.

Source of the values: a collection of fitness landscapes (doi:10.1038/s41467-024-54723-y).
